Data taken from the supplement of paper PMC8285479.
Where a name gives a salt, the structure may show the parent alone. ± gives the standard deviation of the averaged measurements. Whole data set: some 1,900 compounds, median “normalised cell viability (NPI; 0 = phenylarsine oxide control, 1 = DMSO control)” near 1, cut for the lowest 2% near 0.039. The list shows a part of the results.

Test system: NCI-H1944
Test: normalised cell viability (NPI; 0 = phenylarsine oxide control, 1 = DMSO control) (fraction of DMSO control); NCI-H1944 is a non-small cell lung cancer line; higher = more viable cells (less compound toxicity)
Conditions: 6 days
[1] = glucocorticoid arm: hydrocortisone 2.75 uM co-treatment, compound 1 µM
[2] = glucocorticoid arm: hydrocortisone 2.75 uM co-treatment, compound 5 µM
[3] = glucocorticoid arm: hydrocortisone 2.75 uM pre-treated 2 days and continued, compound 1 µM
[4] = glucocorticoid arm: hydrocortisone 2.75 uM pre-treated 2 days and continued, compound 5 µM
[5] = glucocorticoid arm: vehicle, compound 1 µM
[6] = glucocorticoid arm: vehicle, compound 5 µM
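Also: CTB read-out in 384-well plates, mean of triplicate wells, normalised per plate against 1 µM phenylarsine oxide and 0.1% DMSO, compounds added 24 h after seeding.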

Row | SMILES | normalised cell viability [1] | normalised cell viability [2] | normalised cell viability [3] | normalised cell viability [4] | normalised cell viability [5] | normalised cell viability [6]
1 | Nc1ccc(CCNc2ncnc3c2ncn3C2OC(CO)C(O)C2O)cc1 (stereo not given) [N6-2-(4-Aminophenyl)ethyladenosine] | 0.9993 ± 0.0011 | 1.01 ± 0.016 | 0.9863 ± 0.0057 | 1 ± 0.026 | 0.992 ± 0.007 | 0.996 ± 0.016
2 | COc1ccc(-c2ccc3c(N4CCOCC4)nc(N4C[C@@H](C)O[C@@H](C)C4)nc3n2)cc1CO | 0.567 ± 0.0085 | 0.5117 ± 0.0011 | 0.619 ± 0.021 | 0.615 ± 0.055 | 0.615 ± 0.017 | 0.564 ± 0.025
3 | OCC1OC(n2cnc3c(NCCc4ccccc4)ncnc32)C(O)C1O (stereo not given) [N6-2-Phenylethyladenosine] | 1.006 ± 0.0069 | 0.9327 ± 0.0083 | 0.852 ± 0.27 | 1 ± 0.017 | 0.993 ± 0.0062 | 1 ± 0.017
4 | OC[C@H]1O[C@@H](n2cnc3c(Nc4ccccc4)ncnc32)[C@H](O)[C@@H]1O [N6-Phenyladenosine] | 1 ± 0.014 | 1.01 ± 0.011 | 1.02 ± 0.022 | 1.013 ± 0.0058 | 1.01 ± 0.01 | 1.002 ± 0.0076
5 | NCCNS(=O)(=O)c1cccc2cnccc12 [H-9 dihydrochloride] | 1 ± 0.017 | 1.017 ± 0.0058 | 1.01 ± 0.013 | 1.01 ± 0.018 | 1.01 ± 0.011 | 1.006 ± 0.0069
6 | CC1=C(/C=C/C(C)=C/C=C/C(C)=C\C(=O)O)C(C)(C)CCC1 [13-cis-retinoic acid] | 0.981 ± 0.0072 | 0.988 ± 0.036 | 0.998 ± 0.013 | 0.97 ± 0.021 | 1.01 ± 0.01 | 0.999 ± 0.011
7 | Nc1nc(OCc2ccccc2)c2nc[nH]c2n1 [O6-benzylguanine] | 0.989 ± 0.0095 | 0.943 ± 0.015 | 0.992 ± 0.014 | 0.92 ± 0.069 | 0.9727 ± 0.0032 | 0.9907 ± 0.0086
8 | CC(C)(Sc1ccc(CCN(CCCCC2CCCCC2)C(=O)NC2CCCCC2)cc1)C(=O)O | 1.027 ± 0.0058 | 1.027 ± 0.0058 | 1.03 ± 0.01 | 1.03 ± 0.015 | 1.027 ± 0.0058 | 1.037 ± 0.0058
9 | NC1C=CC=C(C(=O)O)C1 (stereo not given) [Gabaculine hydrochloride] | 0.974 ± 0.017 | 0.96 ± 0.017 | 0.9813 ± 0.0046 | 0.967 ± 0.0057 | 0.992 ± 0.016 | 0.9693 ± 0.0055
10 | CSc1ccc2c(c1)N(CCC1CCCCN1C)c1ccccc1S2 (stereo not given) [Thioridazine hydrochloride] | 0.997 ± 0.015 | 0.896 ± 0.074 | 1.02 ± 0.025 | 1.043 ± 0.0058 | 0.997 ± 0.011 | 0.545 ± 0.24
11 | CN(Cc1cnc2nc(N)nc(N)c2n1)c1ccc(C(=O)N[C@@H](CCC(=O)O)C(=O)O)cc1 [Methotrexate hydrate] | 0.467 ± 0.023 | 0.396 ± 0.016 | 0.709 ± 0.039 | 0.572 ± 0.057 | 0.277 ± 0.0078 | 0.232 ± 0.024
12 | CN(Cc1cnc2nc(N)nc(N)c2n1)c1ccc(C(=O)N[C@@H](CCC(=O)O)C(=O)O)cc1 [Methotrexate hydrate; Methotrexate] | 1.003 ± 0.0058 | 0.387 ± 0.02 | 1.01 ± 0.01 | 0.569 ± 0.041 | 0.994 ± 0.006 | 0.227 ± 0.02
13 | Nc1cc(F)ccc1NC(=O)/C=C/c1cnn(C/C=C/c2ccccc2)c1 | 0.978 ± 0.028 | 1.01 ± 0.01 | 0.969 ± 0.036 | 1.017 ± 0.0058 | 0.9837 ± 0.0015 | 0.875 ± 0.01
14 | CCN1CCc2nc(N)oc2CC1 [B-HT 933 dihydrochloride] | 1.013 ± 0.0058 | 1.007 ± 0.0058 | 1.003 ± 0.0058 | 1.01 ± 0.015 | 0.9913 ± 0.0031 | 0.9947 ± 0.005
15 | C[N+](C)(C)CCOC(=O)CCC(=O)OCC[N+](C)(C)C [Succinylcholine chloride] | 1.004 ± 0.0098 | 1.03 ± 0.02 | 0.893 ± 0.21 | 1.01 ± 0.011 | 1.013 ± 0.0058 | 1.01 ± 0.011
16 | O=C(CCCCCCC(=O)Nc1ccc([C@H]2O[C@@H](CSc3nc(-c4ccccc4)c(-c4ccccc4)o3)C[C@@H](c3ccc(CO)cc3)O2)cc1)NO [Tubacin] | 0.978 ± 0.0076 | 0.977 ± 0.013 | 0.993 ± 0.017 | 0.981 ± 0.0066 | 0.9873 ± 0.0059 | 0.997 ± 0.013
17 | CC(Cc1ccc(O)c(O)c1)(NN)C(=O)O (stereo not drawn) [S-(-)-Carbidopa] | 0.997 ± 0.013 | 1.01 ± 0.014 | 1.01 ± 0.013 | 1.01 ± 0.015 | 0.992 ± 0.0035 | 0.989 ± 0.004
18 | CCCCCCCCCC(=O)NC(CN1CCOCC1)[C@H](O)c1ccccc1 (mixture of isomers) | 1.01 | 0.9997 ± 0.0096 | 1.02 ± 0.026 | 1.01 ± 0.024 | 1.01 | 0.997 ± 0.014
19 | CN(C)c1ccc(O)c2c1C[C@H]1C[C@H]3[C@H](N(C)C)C(O)=C(C(N)=O)C(=O)[C@@]3(O)C(O)=C1C2=O [Minocycline hydrochloride] | 1.007 ± 0.0058 | 1.02 ± 0.025 | 1.003 ± 0.0061 | 1.05 ± 0.073 | 0.9947 ± 0.005 | 1 ± 0.014
20 | Cc1ccc(S(=O)(=O)NC(=O)NN2CCCCCC2)cc1 [Tolazamide] | 1.007 ± 0.0058 | 1.01 ± 0.01 | 1.01 ± 0.017 | 1.01 ± 0.026 | 1.013 ± 0.0058 | 1.007 ± 0.0058
21 | COc1cc2c(CCNC(C)=O)c[nH]c2cc1Cl [6-Chloromelatonin] | 1.013 ± 0.0058 | 1.01 ± 0.01 | 1.01 ± 0.01 | 1.004 ± 0.0078 | 0.9917 ± 0.006 | 0.99967 ± 0.00058
22 | CCCN(CCc1ccccc1)C1CCc2c(O)cccc2C1 (racemic) [(±)-PPHT hydrochloride] | 0.986 ± 0.011 | 0.969 ± 0.03 | 1.05 ± 0.078 | 0.966 ± 0.02 | 1.007 ± 0.0058 | 1.003 ± 0.0058
23 | C=CCn1c(=O)c2c(nc(-c3ccc(S(=O)(=O)O)cc3)n2C)n(C)c1=O [1-Allyl-3,7-dimethyl-8-p-sulfophenylxanthine] | 0.982 ± 0.0027 | 0.979 ± 0.017 | 0.9887 ± 0.0042 | 0.976 ± 0.0099 | 0.984 ± 0.0027 | 0.9797 ± 0.0086
24 | CCCCCCCCCCCCc1ccc(S(=O)(=O)Nc2nncs2)cc1 | 1.01 ± 0.021 | 1.037 ± 0.0058 | 1.001 ± 0.0085 | 1.03 ± 0.026 | 1.001 ± 0.0078 | 1.01 ± 0.018
25 | c1cncc(CN2CCC(n3ncc4c(N5CCOCC5)nc(-c5ccc6[nH]ccc6c5)nc43)CC2)c1 | 0.773 ± 0.022 | 0.532 ± 0.036 | 0.743 ± 0.027 | 0.615 ± 0.036 | 0.542 ± 0.035 | 0.24 ± 0.0038
